The source gives no read counts; variants with many changes may rest on few reads.

The results in this text go back to the RNAGym collection of RNA variant scans (doi:10.7554/elife.90254).

The chains are these.
B1: LINE1-full (parent)
chain: UACGUAGGUGGUUUUCCCCUGAUAGUGCUAAGGGGGCCUGGAAGUUUGGACUGGGCAGAGCUCAACACAGCGUGGCAAAGUGGCUGUGGCUAGACUGCCUCUCUGGAUUCCUCGUCACUCAGCAGGGCAUCUCUGAGAGAAAUGCC

The variants in the series derive from B1. Description: self-cleavage, relative activity (ratio to wild type); higher = more cleavage; in vitro, sequencing; the parent is a self-cleaving ribozyme.
Take A2G U115C U134A A142G: the self-cleavage is 0.77.
In the case of A2G U20C U26G, the self-cleavage was 0.36.
Regarding U1C U9A U14A A64C, the self-cleavage turned out to be 0.29.
Then U1G A42G G72A A77U, with 0.48; and A2G U23A U26A G27A A42U, with 0.8; and A2G U5A U73C U134C, with 2.3.
Under A2G U12C C38A A43G U87A stands 0.36; under A2U A22G A59U U100C A117U, 1.98.
Consider A2G G49A A79C, for which the self-cleavage stood at 1.04.
A2G U73C A77U C128U: the self-cleavage was determined as 0.47.
Then A2G A43G G80A U109A A136G, with 1.52; and A2G U26C U45G, with 0; and U1C U104C U115C G127A, with 1.46.
Then C3U A67U U104C U108C, with 0.53; and C3G A77U A94U, with 0.59; and A2G A42G A94U U134C, with 0.48.
For the variant A2G U13A U85C A138G, the self-cleavage was found to be 0.
Under A2G A107G C113U stands 0.95; under A2G G33C U81A A138G A142G, 1.73; under U1C U87A A129U, 0.14.
Take A2U C28U A107G A136G: the self-cleavage amounted to 1.02.
Turning to C3U A117G U143C, the self-cleavage is 1.15.
Then A2G A43G U143C C145U, with 1.01; and C3G U96C A129G, with 0.38; and A2G U14C U115C, with 0.27.
Take A2G U14A A57U A79G U91C A136U: the self-cleavage amounted to 0.
Under A2G U9A A65G stands 0.23; under U1C C71G U85C A141G, 0.06; under A2G G36C G55C A79G, 0.09.
C3A U13C U85C: the self-cleavage worked out at 0.22.
As for U1C U73A U85C, the self-cleavage worked out at 0.
For the variant A2G A129U A142G U143C, the self-cleavage was 0.97.
Under C3A U45A C76U stands 1.23.
For the variant U1C U13C U15A C38U U52A A64G U109A, the self-cleavage was determined as 0.18.
With A2G G34U A117U U119A A124G A138G, the self-cleavage was 1.51.
Turning to A2G U62C A94G, the self-cleavage was 0.
Turning to A2G G8C U100A U115A U143C, the self-cleavage was 0.66.
In the case of U1C U45C U47C, the self-cleavage is 2.19.
Then A2G U26A A43G A69G A78G A141U, with 0.64.
Under A2U U39A U91A A107G stands 0.88; under A2C A78U U109G, 1.21.
Under A2G A78G U112A stands 0.65.
As to A2G C63U A107C A117C, the self-cleavage was 0.81.
Under C3U A42G A94C U100C stands 1.23.
Then A2G A64U A78G, with 0.47.
Then C3U A94G A107G, with 0.
As to U1C U26A U87C, the self-cleavage worked out at 0.19.
Take U1C U12C U100C: the self-cleavage was 1.44.
Under A2G U52A A77G stands 0.88.
In the case of A2U U12G A59G A138C, the self-cleavage came out at 0.2.
Regarding A2G U9C U20A A121U U132C, the self-cleavage was 0.95.
Take U1C U20C U52C A78G G125A: the self-cleavage came out at 1.08.
Under A2G A31G A77U U100C U115A stands 0.92; under A2G U9C U26C C95G A141G, 0.38; under A2U U9A U14C G33A A59C A78G U143C, 0.32.
For the variant U1C U14C A77U U91C, the self-cleavage stood at 0.12.
Under U1C U12C U102A U108A A138G stands 1.84; under A2G U5A A67G A92G A142G, 0; under A2G U81A U102C C113A A141G U143C, 1.8.
Then A2G U46C A138G, with 1.24; and A2U U14C U47C A78G, with 1.01.
For the variant A2G G35A U46A A67G U104A U115C, the self-cleavage came to 0.56.
Then U1C U15C A136G, with 0.51.
Under U1C U104C U130C stands 0.5; under U1C U73C G83C, 1.38; under A2G U9C U52C A79G G126A, 0.54.
Then A2U A78U U104C, with 1.55; and C3U U9A A142G, with 0.92.
With U1C U12C U15C A129G, the self-cleavage is 1.68.
Then U1C U45A U102C, with 1.23; and A2G U104G A141G, with 1.15.
On to A2U A117G U119A, for which the self-cleavage was determined as 1.06.
On to A2G U85G A136U, for which the self-cleavage was 0.14.
Then A2G C16U U45C U52A A92G A142G, with 0.88.
Then A2G U85G A124U, with 0.26; and U1C U9G A69G U115C, with 0; and U1C U9A G27A, with 0.79.
Take A2C A22G U52C A141G: the self-cleavage is 2.76.
Take C3G U23C U81A U143A: the self-cleavage stood at 1.18.
With A2G A6U A67U G93A G126A, the self-cleavage was found to be 0.08.
Regarding A2G U62C A129U, the self-cleavage amounted to 0.
Under A2G A79G U115A stands 0.54; under C3U A136G A138G, 1.11.
In the case of A2G U100A U102C, the self-cleavage turned out to be 0.19.
Under U1C U46A A107C G127A stands 1.36; under U1C G33A A57U, 0.14; under U1C G11A U15A U112A, 0.52.
Under U1C C56A U73C stands 0.07; under U1C U20C U46C, 2.87; under A2G U73A U130C, 0.44.
Then U1C U39A A67G U85C U132C, with 0.
With A2C U14C A136G, the self-cleavage was 1.41.
Under U1C U46C U73C U130C stands 0; under C3U U5C A141G, 0.63; under A2G U45C A59G G82A U104A U134A A140G, 0.
Under A2G U26C A136U stands 1.19; under C3U C16A G27U G33U A117G, 1.18; under U1G U87C G97A U115C, 0.21.
In the case of A2U U29C G86A A107G U134C, the self-cleavage is 0.17.
For A2G A24C U46C U85A, the self-cleavage amounted to 0.
Consider C3U A78G U112C, for which the self-cleavage is 0.66.
Consider A2G A22G G40A A78G, for which the self-cleavage turned out to be 0.82.
Under A2U G7A A138G stands 0.71; under A2G A65G C76U C90U, 0; under U1G C3U U13C, 0.63.
For the variant U1C U12G A42G, the self-cleavage was determined as 0.
Then A2G A57G G93U A124G, with 0.12; and U1C U87C A136G, with 0.3; and C3A A67G A77G A136G, with 1.84.
Then A2G U39A A43C A79G, with 1.84; and A2G C3U G7C U73C, with 0.8; and A2G U29C U132C, with 0.44.
In the case of A2G U9A U29C, the self-cleavage came out at 1.08.
Under U1C U13C A77U stands 0.97.
A2G A65G G70A U104A: the self-cleavage came to 0.17.
Turning to A2G U52A A65G U102A G135U, the self-cleavage was determined as 0.27.
Under U1G A65G U91C stands 0.
Then A2G A42G G114C, with 1.22; and C3U A78G A107G A141G, with 1.72; and C3U G34U G72A, with 1.65.
Then U1C U12C U52A, with 1.19; and C3U C51A U81C U102C A121G, with 0.38; and A2G U29C U39C A64U U132A, with 0.38.
Consider A2G U46C A57U U102C C113U, for which the self-cleavage stood at 0.
Take U1C U9C A43G G70C U96A: the self-cleavage was 0.
As for A2G U102C A141G, the self-cleavage came out at 1.46.
Take A2G G53A U96C A121U: the self-cleavage amounted to 0.21.
Under A2G U96C C128U stands 0.14; under U1C U20C U62C A140G, 0.
Consider C3A U13C C66U U85C, for which the self-cleavage worked out at 0.04.
In the case of A2G U14C A78G U132C, the self-cleavage was 0.42.
As for U1C U52C U73C G75A A141G, the self-cleavage is 0.42.
As to U1C U20G U47A A94G U115C, the self-cleavage came out at 0.24.
Then U1C G53U A141G, with 1.21; and U1C U100C U104G A140G, with 0.92; and A2U U13C G32A, with 0.73.
With U1C U143G C145U, the self-cleavage came to 0.36.
Under A2G U62A A77G G88A U143C stands 0.07.
Regarding A2G C95U U115C A142G, the self-cleavage worked out at 1.31.
With A2G U115C A138G, the self-cleavage was 0.32.
Under A2G G10A U119C stands 1.08; under A2G A43G U109C C111U, 0.53.
U1C U47G U112C: the self-cleavage worked out at 0.2.
On to A2G A22G A43G C66A A79G U91C, for which the self-cleavage was 0.3.
Under U1C U12C A78G U119A C146A stands 0.71.
Under C3U A69G A136U stands 0.68; under C3U G36U U52G A129U, 0.58.
Under U1C U47A U85C stands 0.05; under C3U A69G U104C, 0.
Take U1C U5A A67G G88A: the self-cleavage amounted to 0.09.
A2U U85A U91A U134C: the self-cleavage is 0.13.
Then U1C U13C U39A A138G, with 0.92.
Take A2G U46A A64G A107G A141G: the self-cleavage was 0.19.
Then C3U A22G A57G A69G G82A, with 0.13; and A2G A59G A79U A107U U132C G137A, with 0.32.
For the variant U1G A43G A142G, the self-cleavage stood at 1.15.
As for A2U U100A U102C, the self-cleavage is 1.31.
Under A2G A43G A67U U132C stands 0.3; under A2G U13A U14A, 0.92; under A2G A50G A64U A67G, 0.29.
In the case of A2G U15C A24U U47C U81A, the self-cleavage stood at 0.77.
A2C G33U U109A A140G: the self-cleavage was 1.05.
On to U1C U52A A64G A69U, for which the self-cleavage amounted to 0.1.
With A2G A78G U85C G88C U115C, the self-cleavage turned out to be 0.
Take U1C U29C U47A A64G A94G: the self-cleavage was found to be 0.
In the case of A2G C90U G135A, the self-cleavage was found to be 0.22.
Then C3U G122A U143G, with 1.05.
